# Over roughly 33,000 sequences, “E-score (-0.5 to 0.5)” has its median near -0.016; the highest 2% begin near 0.31. Some of the results follow.
# Molecular target: Cst6 (UniProt P40535)
# Experiment: PBM E-score (8-mer binding enrichment) (E-score (-0.5 to 0.5)); higher = stronger / more preferred TF binding; most listed sequences are background and not binding sites
# Settings: protein concentration: 200 nM; construct: GST-DNA-binding domain
# Procedure, shortened: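 Masliner-normalised scans of fluorescent anti-GST signal were the basis for scoring. That signal came from GST-tagged yeast transcription factors applied at about 100-200 nM to double-stranded universal all-10-mer Agilent arrays on fresh or once-stripped slides. Each ungapped eight-base word, pooled with its reverse complement, received an E-score from the Universal PBM Analysis Suite.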
row,Sequence,PBM E-score
1,TAGCCTGA,-0.0426
2,CTGAAGCA,0.0318
3,ACAAAAGG,-0.0736
4,ACGTAATA,0.482
5,GGCCCTTA,-0.0652
6,CCACAGAA,-0.0102
7,GAAAACGC,0.154
8,ATTGGGTA,-0.0621
9,AATCGCAC,0.0197
10,AACACGAT,0.164
11,ATTTATTC,0.297
12,GGTACATA,-0.0661
13,GATCGATA,0.0815
14,ACTAGAAC,0.0684
15,ACTTGCCA,-0.174
16,CTCATAGC,-0.0933
17,AGGGGGAT,-0.272
18,GAATTTTA,0.282
19,ATGTGAGG,0.0542
20,GCCGAGAC,-0.0932
21,CACTCCGC,-0.171
22,GCACTCCA,-0.217
23,ACTTTCAG,-0.0757
24,CATATCTC,0.0326
25,ACGATCAT,0.133

row,Sequence,PBM E-score
1,GGTACGAC,-0.199
2,CATCCCAA,0.0423
3,CAGACAGA,0.0485
4,GGCTACTA,0.0372
5,CTCGATGC,-0.164
6,TATGGAAA,0.0824
7,CGGACATC,-0.196
8,CGCCGAAA,0.0529
9,CGCGGACC,-0.143
10,AGTGGATC,-0.167
11,ATATGGCG,0.0911
12,GGTCAAGA,0.00732
13,CAGGGTAA,-0.0548
14,CCTACTAG,-0.0922
15,CAGGATCA,-0.0696
16,AGCACACG,0.0295
17,AAAATAAC,0.178
18,CACGTGAA,0.0421
19,AGCCCAAT,-0.0737
20,CCACTGGG,-0.0515
21,CCTTTGTA,0.0635
22,AGGCAATC,0.0471
23,ACTTTTCA,0.133
24,GTCGGCAC,-0.169
25,ACGAATGC,0.0696

row,Sequence,PBM E-score
1,AAGTACGT,0.208
2,CGGGATCA,-0.2
3,ATCGCTTG,-0.17
4,AAAACCCG,-0.0613
5,CTATTCAC,0.102
6,AAGAGTGT,0.0413
7,CAAGAAGA,0.129
8,GGGTTAGA,-0.116
9,CATCAACG,0.228
10,ACATCACT,0.401
11,GATAGGAC,-0.356
12,ACGACATG,0.18
13,TGGTACCA,-0.16
14,CAGCAATC,-0.00327
15,ACCTACAT,-0.159
16,CGCAAGAG,0.0484
17,GGGGCTAC,-0.21
18,ACGGTACT,-0.113
19,GGATAGAC,-0.114
20,AACATGAT,0.197
21,CACGAACC,-0.139
22,AAGCGATC,-0.00449
23,TAATCCTA,-0.118
24,AAACACAC,0.138
25,AACTAAGT,-0.0134

row,Sequence,PBM E-score
1,CCCTGCAG,-0.124
2,CCTTCACG,-0.00619
3,GGCCAAGA,-0.294
4,CGTGAGAG,-0.269
5,CCAAAGTC,-0.149
6,ATGTGTCC,0.00709
7,GGCTGGAA,-0.204
8,CGTTTTGC,0.174
9,GCTGGGGA,-0.334
10,CTCGCACA,0.00612
11,CTGACAGC,-0.148
12,GCATTACA,0.187
13,CAAAAACC,0.0583
14,CTGGAGGC,-0.21
15,AGTTTATC,0.19
16,CTTTGCCA,-0.0186
17,ATTGCGGC,-0.0327
18,ATTATCTG,0.0751
19,ACCGCAAA,0.0877
20,ATTCGGGA,-0.183
21,CCATCGTA,0.105
22,AATTCTTA,0.0873
23,CCCGGGAA,-0.255
24,GACAGACA,0.00042
25,AACATGTC,0.0546

row,Sequence,PBM E-score
1,CGACAACG,0.119
2,AACTGCGG,0.0561
3,ATTAACGA,0.179
4,AATAGAGG,-0.141
5,CCGCCGAG,-0.164
6,ATCTTACG,0.213
7,AAGTTTGG,0.22
8,AAATCGCT,-0.214
9,CAGTAGCC,-0.254
10,AAGATCGC,-0.0457
11,CCGGGAAG,-0.184
12,AGAGTATG,-0.189
13,CGATACAG,-0.0771
14,CCAATTTC,0.107
15,CCGTCCGA,-0.181
16,ACACGTCC,-0.182
17,CATTGACG,0.358
18,CCGTAGCA,0.0411
19,GAACGAAA,-0.0138
20,AGGTTAAC,0.0395
21,CCAGTGGG,-0.237
22,GGTACTTA,-0.0213
23,ATAGAGTC,-0.0801
24,ACCTTTGC,-0.095
25,AGGGCGGG,-0.0957

row,Sequence,PBM E-score
1,AGACCAAT,-0.0669
2,TACTTGAA,0.113
3,GCAGTACA,-0.164
4,CAACGAAG,-0.107
5,AGCGTACT,-0.157
6,AAGGCCAG,-0.18
7,CTACCAAG,-0.128
8,ATATGTTG,0.138
9,AGGTGCAA,0.0369
10,GTCGAGAA,0.089
11,GGAAATCA,0.0954
12,CCCCAAAG,-0.168
13,ATGGACAG,-0.166
14,ATATCTCC,-0.0493
15,GTGAAGAA,0.0969
16,ACTTATAG,0.0302
17,AAGCGAGT,0.0165
18,ATTAAAAG,0.173
19,ATAAAGAC,0.0641
20,ATCCGCTC,-0.218
21,AAACGCGA,0.0976
22,GTCGCGTA,0.19
23,ATCGCCAT,0.0296
24,CATCTTGG,-0.0575
25,CATCGGCA,0.0521

row,Sequence,PBM E-score
1,AGTGATAT,0.0988
2,CGAAGTAC,-0.106
3,GAAGGGGC,-0.202
4,TGAGAACA,0.145
5,GGATTACA,-0.0128
6,ACACACAC,0.0991
7,CGAGAATA,0.213
8,AAGGACCA,-0.2
9,ATATCGCA,-0.0175
10,AGCGGGAT,0.0274
11,CAGTATCC,-0.0801
12,CGGATAAC,0.0481
13,GAACCGAC,-0.0852
14,GGGCGCAC,-0.214
15,CTCCCTAC,-0.0597
16,CGTGGTCA,-0.0643
17,ATAAAATG,0.225
18,ACTCTGGC,-0.255
19,AATATTAC,0.241
20,AGAGTCAT,-0.0245
21,GCGCGTTA,0.0245
22,AGCGTCAA,0.269

# From the supplement of paper PMC3334620
